Results taken from the RNAGym collection of RNA variant scans (doi:10.1073/pnas.2313332121).
Variants at the floor of the assay are shown more often than the library holds them.

B1: TPR 5TU (parent)
chain: GGAUCUUCUCGAUCUAACAAAAAAGACAAAUCUGCCACAAAGCUUGAGAGCAUCUUCGGAUGCAGAGGCGGCAGCCUUCGGUGGCGCGAUAGCGCCAACGUUCUCAACUAUGACACGCAAAACGCGUGCUCCGUUGAAUGGAGUUUAUCAUG

Variants of: B1
Test: polymerase ribozyme fitness, log enrichment relative to wild type (log ratio); higher = more active; in vitro selection for triplet polymerase activity
In short: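 Each subunit of a heterodimeric triplet polymerase ribozyme was represented by a PCR-built, transcribed mutant library that underwent triplicate single-round in vitro selection with frozen incubation at −7 °C. Extended constructs were recovered by gel excision, streptavidin-bead capture and RT-PCR, and Illumina sequencing of input and output libraries kept genotypes with ≥10 input reads and ≥1 read per output. Fitness is the logarithm of genotype enrichment relative to wild-type enrichment, from inverse-variance-weighted replicate averages, with a logarithm base of 2.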
For A26U C38A C116G U127G, the “polymerase ribozyme fitness (log ratio)” value was no more than -4.2.
With C27A A39U C87G C149A the “polymerase ribozyme fitness (log ratio)” value was no more than -4.2.
With A26U A47C G84U A89U C93A C123G U134C the “polymerase ribozyme fitness (log ratio)” value was no more than -4.2.
In the case of C27G U53G U56A C76G G83A, the “polymerase ribozyme fitness (log ratio)” value is reported as no more than -4.2.
With C27G C38A C54U G92U U134G the “polymerase ribozyme fitness (log ratio)” value was no more than -4.2.
In the case of A26U U55A G74A G92A A110U G136A, the “polymerase ribozyme fitness (log ratio)” value is reported as no more than -4.2.
In the case of A26U C27G A40G C51U A52U C76U U82A A91U G94C, the “polymerase ribozyme fitness (log ratio)” value is reported as no more than -4.2.
For C27G A52G C87A, the “polymerase ribozyme fitness (log ratio)” value was no more than -4.2.
With C27A A29C C79A C87A G128C U151A the “polymerase ribozyme fitness (log ratio)” value was no more than -4.2.
In the case of C27G U31A A37G C85U G141C, the “polymerase ribozyme fitness (log ratio)” value is reported as no more than -4.2.
In the case of C27G C125A, the “polymerase ribozyme fitness (log ratio)” value is reported as -3.93.
For C27G A49U C85U, the “polymerase ribozyme fitness (log ratio)” value was no more than -4.2.
With C27G C95G C96G the “polymerase ribozyme fitness (log ratio)” value was no more than -4.2.
In the case of A26U G88A A89C C95G U101C, the “polymerase ribozyme fitness (log ratio)” value is reported as no more than -4.2.
In the case of A26U U53G G83A U144C, the “polymerase ribozyme fitness (log ratio)” value is reported as no more than -4.2.
With C27U A28U C36A C96G U135G the “polymerase ribozyme fitness (log ratio)” value was no more than -4.2.
With C27A C57A A66G G86U U90G A121G U151C the “polymerase ribozyme fitness (log ratio)” value was no more than -4.2.
For A26U A64G, the “polymerase ribozyme fitness (log ratio)” value was no more than -4.2.
For C27G C85G C93U, the “polymerase ribozyme fitness (log ratio)” value was no more than -4.2.
In the case of A26U G70C G84U A89C A121G G128A, the “polymerase ribozyme fitness (log ratio)” value is reported as no more than -4.2.
With A26U C38G G92A the “polymerase ribozyme fitness (log ratio)” value was no more than -4.2.
For A26U C54A C93A A138C G141C, the “polymerase ribozyme fitness (log ratio)” value was no more than -4.2.
In the case of A26U C27U A28U G86U C93U, the “polymerase ribozyme fitness (log ratio)” value is reported as no more than -4.2.
In the case of C27A C51A U53A U55G C79A G84U C108A C131G, the “polymerase ribozyme fitness (log ratio)” value is reported as no more than -4.2.
In the case of C27A C32A G88U C95U U144G, the “polymerase ribozyme fitness (log ratio)” value is reported as no more than -4.2.
For C27G C85U A115C G143C, the “polymerase ribozyme fitness (log ratio)” value was no more than -4.2.
With A26U G141U the “polymerase ribozyme fitness (log ratio)” value was -1.94.
For C27G G80A C114A C116U A142C, the “polymerase ribozyme fitness (log ratio)” value was no more than -4.2.
In the case of A26U C75U, the “polymerase ribozyme fitness (log ratio)” value is reported as -3.23.
With C27U A28G A64U G84U G141C G143C the “polymerase ribozyme fitness (log ratio)” value was no more than -4.2.
In the case of A26U C43G C87U, the “polymerase ribozyme fitness (log ratio)” value is reported as no more than -4.2.
With C27G A29U A37G U55A A137U the “polymerase ribozyme fitness (log ratio)” value was no more than -4.2.
With C27U A29U C95G U134C the “polymerase ribozyme fitness (log ratio)” value was no more than -4.2.
In the case of A26U A49U A137G, the “polymerase ribozyme fitness (log ratio)” value is reported as no more than -4.2.
With C27G A41C A106U the “polymerase ribozyme fitness (log ratio)” value was no more than -4.2.
For A26U A49C C51U C87A A110G, the “polymerase ribozyme fitness (log ratio)” value was no more than -4.2.
With A26U G50U C69U G92A A98G the “polymerase ribozyme fitness (log ratio)” value was no more than -4.2.
With A26U G48C C93A U104A the “polymerase ribozyme fitness (log ratio)” value was no more than -4.2.
In the case of C27U A47C U56G C76U U78A G94A A97U C118U, the “polymerase ribozyme fitness (log ratio)” value is reported as no more than -4.2.
In the case of C27A U44A C63U U77A C85U G86U U144C, the “polymerase ribozyme fitness (log ratio)” value is reported as no more than -4.2.
For C27U A40U G58C G59U G92U, the “polymerase ribozyme fitness (log ratio)” value was -2.23.
For C27G A28G C69G C93G C95U, the “polymerase ribozyme fitness (log ratio)” value was no more than -4.2.
With A26U U61A C96G A120U the “polymerase ribozyme fitness (log ratio)” value was no more than -4.2.
With C27U A41C A52C C54G C95G U102A the “polymerase ribozyme fitness (log ratio)” value was no more than -4.2.
In the case of A26U A28G G42A A49G C69U C96G A113G G143U, the “polymerase ribozyme fitness (log ratio)” value is reported as no more than -4.2.
With A26U A64U G71A C85A A98C A142U the “polymerase ribozyme fitness (log ratio)” value was no more than -4.2.
In the case of C27A U45G G46A A60U C95G G124U, the “polymerase ribozyme fitness (log ratio)” value is reported as no more than -4.2.
For C27A G48U C54U G83C C118U A120U A121U, the “polymerase ribozyme fitness (log ratio)” value was no more than -4.2.
For A26U U53A C87A C99A G143C, the “polymerase ribozyme fitness (log ratio)” value was no more than -4.2.
In the case of C27A C75U C93G A115U, the “polymerase ribozyme fitness (log ratio)” value is reported as no more than -4.2.
In the case of A26U C54A G86U, the “polymerase ribozyme fitness (log ratio)” value is reported as no more than -4.2.
In the case of C27G C72U U134A U135G, the “polymerase ribozyme fitness (log ratio)” value is reported as no more than -4.2.
With A26U U56A U104C A106C U144C the “polymerase ribozyme fitness (log ratio)” value was no more than -4.2.
In the case of A26U A147U, the “polymerase ribozyme fitness (log ratio)” value is reported as -0.0486.
With C27G U56A the “polymerase ribozyme fitness (log ratio)” value was -3.69.
With A26U A37U G59C A98G G117U the “polymerase ribozyme fitness (log ratio)” value was no more than -4.2.
For A26U U33G A40G A60U G84C A107G A120U C149U, the “polymerase ribozyme fitness (log ratio)” value was no more than -4.2.
In the case of A26U G81A G86A A91C C95U C103A U144C A150C, the “polymerase ribozyme fitness (log ratio)” value is reported as no more than -4.2.
For C27A A28C U61G U78A C95G, the “polymerase ribozyme fitness (log ratio)” value was no more than -4.2.
For A26U G81A, the “polymerase ribozyme fitness (log ratio)” value was -1.66.
In the case of C27G A30U C93G A98G, the “polymerase ribozyme fitness (log ratio)” value is reported as no more than -4.2.
In the case of C27G U55G G88A G94U U109A C114U C123A U134C, the “polymerase ribozyme fitness (log ratio)” value is reported as no more than -4.2.
With C27G A39C C63A C85A U109G the “polymerase ribozyme fitness (log ratio)” value was no more than -4.2.
For C27U A37C A60G G86A U104C C118A C132U U144C C149G, the “polymerase ribozyme fitness (log ratio)” value was no more than -4.2.
With C27U A47G A52C G83A U146G the “polymerase ribozyme fitness (log ratio)” value was -3.62.
With A26U A40U U45A G50A U55A G92U C132U G143A the “polymerase ribozyme fitness (log ratio)” value was no more than -4.2.
For C27A A29G A66C A73U A113U, the “polymerase ribozyme fitness (log ratio)” value was no more than -4.2.
With C27A A52G U55A C75G C95A A98U the “polymerase ribozyme fitness (log ratio)” value was no more than -4.2.
With C27A A110G the “polymerase ribozyme fitness (log ratio)” value was no more than -4.2.
With A26U U53G U56G G58C G62A G67A A91G U145C U146G the “polymerase ribozyme fitness (log ratio)” value was no more than -4.2.
For A26U G42U U44A U55A G59U C103G A119G A120U G140U, the “polymerase ribozyme fitness (log ratio)” value was no more than -4.2.
With A26U G84C C85G G126A the “polymerase ribozyme fitness (log ratio)” value was no more than -4.2.
For C27G G50A C99U, the “polymerase ribozyme fitness (log ratio)” value was no more than -4.2.
For A26U C114G, the “polymerase ribozyme fitness (log ratio)” value was no more than -4.2.
For A26U A30U A37C U61A A66C G67C C69U C87A C105A C125U, the “polymerase ribozyme fitness (log ratio)” value was no more than -4.2.
For C27U A37U U56A C75G G83C, the “polymerase ribozyme fitness (log ratio)” value was no more than -4.2.
In the case of C27G A110U, the “polymerase ribozyme fitness (log ratio)” value is reported as no more than -4.2.
For C27U A49C A98G C99A C125U U148C, the “polymerase ribozyme fitness (log ratio)” value was no more than -4.2.
For C27U A40C G59C G92C A98G C108U C132A U151G, the “polymerase ribozyme fitness (log ratio)” value was no more than -4.2.
For C27U A39G C54U U55A G74U C85U C149G, the “polymerase ribozyme fitness (log ratio)” value was no more than -4.2.
For A26U C79G G86U U111C U145G U146C, the “polymerase ribozyme fitness (log ratio)” value was no more than -4.2.
With A26U U56A the “polymerase ribozyme fitness (log ratio)” value was -2.17.
With A26U C57G A66G U82A G128U G143C C149U the “polymerase ribozyme fitness (log ratio)” value was no more than -4.2.
In the case of C27A U55G A66U C72U U78G C79U A91C C105U, the “polymerase ribozyme fitness (log ratio)” value is reported as no more than -4.2.
